# ± gives the standard deviation of the averaged measurements. The list shows a part of the results.
# Tested on: PfAP2-G AP2 domain (GST-tagged)
# Assay: gcPBM binding intensity (ln(normalized median fluorescence intensity)); higher = stronger DNA binding
# In short: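 Using an Agilent 4 × 180k array, primer-extended double-stranded 36-bp intergenic genomic probes and negative controls were exposed for 1 h to GST-fused P. falciparum DNA-binding domains expressed in E. coli. Binding was carried out in 1× PBS with 1% milk, 0.2 mg/ml BSA, 0.5% salmon testes DNA and 0.03% Triton X-100, and protein was detected with Alexa488 anti-GST antibody and a 488 nm scan. Binding intensity is the highest Masliner-normalised natural-log median intensity across replicate spots of either probe orientation.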
row,Sequence,gcPBM binding intensity (ln)
1,GTCATATATAATTGTTGTACATTTTTATAATTATGT [XGTACX_site8091],11.2 ± 0.71
2,AATTTTCTTAAAATTTGTACGTATATATTTAATATA [XGTACX_site3906],11.3 ± 0.61
3,AATATAAATGTGATTACACACAACACATTTAAATGT [CACACA_site1212],9.985 ± 0.049
4,CTTATACATATATATAGTACATATATCATTTTTATG [XGTACX_site4462],10.9 ± 0.43
5,ATATATAATATTTATTGTACTATTTTATTTTTATAA [XGTACX_site705],11.2 ± 0.81
6,TTTGACATACCTCTTGCATGTGAAAAACTTTTCGCT [TGCATGCA_site364],10 ± 0.099
7,AAAAAAGACCATGTTAGTACATAAGATTTTTTTCAT [XGTACX_site4298],11.2 ± 0.83
8,AATACGTTATTATTTTGTACATATAAATAATAAGTT [XGTACX_site815],10.9 ± 0.6
9,TTTTTTTTTTCTTTTTGTACATATTCATAACAAGTA [XGTACX_site2784],11 ± 0.7
10,TATATAATCGAGTGCACACACAAAAAAAAAGTGAAC [CACACA_site1483],10.6 ± 0.42
11,TATTATATATATATCACACATATATTCATGTACATA [CACACA_site5432],11 ± 0.64
12,ACTCTTTTAACGCAAAGTACTTTTTAAAATATTTCG [XGTACX_site7534],11.2 ± 0.54
13,AACATACGAATATTCACACATAAATATATAAATCGC [CACACA_site4672],10 ± 0.17
14,ATTTCTATTTGGGTTAGTACATATAAGTCTATTTTC [XGTACX_site3234],11 ± 0.6
15,ATAATATTATGTGTGAATATATCTTTAAAAAGGATA [GTGCAC_negctrl_site15],9.865 ± 0.078
16,TATATATTTCATAATACACACGAAAAAAAAAAAAAA [CACACA_site8972],9.83 ± 0.44
17,ATAAAAATAAAATAAGGTACAGACGAAAAAATTGAA [XGTACX_site5097],11.2 ± 0.78
18,CACAAAAATAGACACACACACATATAAATAAATATA [CACACA_site6598],9.93 ± 0.13
19,TAACTCTATTTTTTTGCATGCTGAAGCTATGAGTTT [TGCATGCA_site821],9.7 ± 0.071
20,TATGTAGGTAAAAATTGTACTTTTTTTTTAATATTT [XGTACX_site2303],11.6 ± 0.76
21,TGACATAATGTGTGTAGTACATATATCGTTATTTGA [XGTACX_site5152],11.3 ± 0.8
22,TGAATAAATATAAAAGGTACACATATAAATATATAT [XGTACX_site6349],11.2 ± 0.81
23,ATATATATATATATATGTACACATATTATAAAAAAA [XGTACX_site8644],11.5 ± 1

row,Sequence,gcPBM binding intensity (ln)
1,TATATATATAAATACACACACACCGTCCGTGTTAAA [CACACA_site5623],10.3 ± 0.2
2,ATATATATTATATAGTGTACCTATGTATAATAATAT [XGTACX_site1683],11.1 ± 0.75
3,AAAATAGGGATCACGTGTACATATAAAGTGACATAC [XGTACX_site8190],11.5 ± 1.1
4,AATGCATACACATATTGTACTAAGCCATACAACACA [XGTACX_site305],10.8 ± 0.45
5,TTCTAGAAAACTGATCGTACAAATAAATATAGACAC [XGTACX_site2808],11 ± 0.57
6,ATATATTATAATGATACACACAAGAAATAAAATTAC [CACACA_site3095],10.23 ± 0.042
7,TATAAAATAAAAGTAAATATATATATATATATATAT [TGCATGCA_negctrl_site208],9.92 ± 0.57
8,ATTATATGTAACACGTGTACCTATTTATGTATGCTT [XGTACX_site5748],11.3 ± 0.76
9,TGATAATTTCATTTTGCATGTGACAATACAAGATGT [TGCATGCA_site203],10.1 ± 0.33
10,AATGGTTCAACGTAGTGTACGTAATAAATAATAAAT [XGTACX_site8668],11.8 ± 0.95
11,AAATAATATGTAATCAAATTCACCAAACGAAAAAAA [TGCATGCA_negctrl_site33],9.96 ± 0.11
12,AATATACAAAATATCACACATATAAAATAATATATA [CACACA_site6067],9.665 ± 0.078
13,GATATATAAACATATACACACAAAAACATATTTATA [CACACA_site6734],10.1 ± 0.19
14,TATTGCCCGAAACACACACACATATATATATATATA [CACACA_site2491],10.3 ± 0.38
15,GTTTATCACAGCCACGCACACATAATATATGTATAT [CACACA_site3669],10.2 ± 0.11
16,TACATATAAAAGTACACACACACACCCATATATATA [CACACA_site941],11.6 ± 1.1
17,ATGGACTTTTATAGTTGTACATACTATGAGAACTTT [XGTACX_site2800],11.7 ± 0.85
18,TAAAATAAATTGTGCACACATATTTATAAATATGAA [CACACA_site2331],10.5 ± 0.16
19,AAATAATTTGTTGACACACACACACCCATACATATA [CACACA_site2285],10.5 ± 0.34
20,TATAATATTTACGACAGTACATATATATATATGTAT [XGTACX_site8332],10.6 ± 0.47
21,AGATGATATACGTAAACACACAAATAAAAAAAATTT [CACACA_site3327],10.3 ± 0.33
22,GAGTTCAGTTTTTGTTGTACTTATTCTTAATATGTC [XGTACX_site6083],11.4 ± 0.85
23,TTTTTTTTTTTTTGATGTACTTATTTAATAAGATAT [XGTACX_site376],11.4 ± 1.1

row,Sequence,gcPBM binding intensity (ln)
1,TATATGGCATATTTCACACACACATAATGAATATTA [CACACA_site9181],9.92 ± 0.13
2,ATATAGCATATAATTTGTACACAGGCCATACCTGAA [XGTACX_site533],11.1 ± 0.77
3,ACAAAAAAATAAGGTGCACACAAAAAAAAAAAAAAA [CACACA_site8171],10.6 ± 0.94
4,AAAAAAAAAACATACACACACATATATATATATATG [CACACA_site1586],10 ± 0.2
5,TGTCCTTATTTGCACACACACATATAAGAAATTTAA [CACACA_site7485],10.6 ± 0.37
6,ATCCAAAAAATTAATGCATGCGCAAAAAATAGCTTA [TGCATGCA_site615],9.56 ± 0.24
7,TTTGTTTTATCTTATATGCACACGATAAAAAAAAAA [CACACA_site2673],10.2 ± 0.47
8,TTTTTTTAAATATACACACACATTTATACATATATA [CACACA_site3400],10.1 ± 0.14
9,GTTATACATTTTGATTGTACATAAACCATTTGAGCA [XGTACX_site7283],11 ± 0.48
10,TGAAAAGAAAACACATGTACAAATATATAAATATAA [XGTACX_site6098],10.8 ± 0.35
11,TAAGGATGAATCCTTTGTACATATATATATATATAT [XGTACX_site1242],10.7 ± 0.57
12,AAGAAAAAATAAAAAATAAAAATAAAAAATAAAAAA [TGCATGCA_negctrl_site274],9.46 ± 0.014
13,TATAAACATATCATATGTACATATATTTTTATAAAA [XGTACX_site8882],11.2 ± 0.64
14,ATATATTTTTGTAGTGTGCACGTTTATATGGTGAAA,10.6 ± 0.5
15,TTTAACGTTGAATATACACACATATATATATATATA [CACACA_site3698],10.1 ± 0.35
16,ATATATTTACATATTACACACAATATTGTACACATA [CACACA_site6564],11.5 ± 0.99
17,CTATTTCAGAAACACACACACACAAACAAACATATA [CACACA_site978],10.2 ± 0.31
18,CAAGAAATTTACAAACGTACATATGTTCATACAAGG [XGTACX_site2372],11.2 ± 0.48
19,TTAGAGAAACAAAATTGTACATTATAAATTTGCCTT [XGTACX_site440],10.7 ± 0.34
20,TATTTGAAAGCCAATTGTACTTTAGTTTTTGAAACA [XGTACX_site5542],11.1 ± 0.9
21,TTAAATATAATATTATGTACTAAATATTTTTTTATT [XGTACX_site6121],11.1 ± 0.75
22,TTTCTTTTTAAATAGGTGCATATTTTTATAAATATA,10.1 ± 0.38
23,ATAAATTTCCTCGTTTTTTTTTTTTTTTTTTTTTTT [CACACA_negctrl_site1173],11.1 ± 0.58

row,Sequence,gcPBM binding intensity (ln)
1,AAAAATATTTATAACACACACATAATATTTATATAT [CACACA_site7238],10.05 ± 0.028
2,TTTATATATATTCTCACACACTTTTTATTTTAACAA [CACACA_site4534],10 ± 0.11
3,ATCTGTCGACAGGACAGTACACAGTAGCCAGGAAAT [XGTACX_site1994],11.1 ± 0.67
4,ATATAAAAATGTAAGGGTACATAATAAATAATCAAA [XGTACX_site5217],11.2 ± 0.67
5,ATTTAGAAAAATAAAACACACATATATATGTAAATA [CACACA_site4113],9.845 ± 0.078
6,TATATATATATATATATATATATGTATGTGCATTTA [TGCATGCA_negctrl_site53],9.85 ± 0.38
7,TTTTTGTTATTTTTAGTGCACATTTAAGGGTGTATT,10.6 ± 0.51
8,GGAAAAAATATATGCACACCCCCCAAAAAAAAAAAA [CACACA_site2222],11.3 ± 0.85
9,AAAAAATATTAATATAGTACTTTATATTTATAAGTA [XGTACX_site6895],10.9 ± 0.62
10,AATACGGCAAACATTAAAAAATATAATAACAATAAA [CACACA_negctrl_site868],9.91 ± 0.042
11,GAAGGAAAAACAGAATGTACATAAATAAACGTATAT [XGTACX_site753],11 ± 0.38
12,ACAAAATTTACAAAATGTACAAAATTTACAAAATGT [XGTACX_site6464],10.6 ± 0.3
13,TATATCTTACTTTTTGCACACACTAATATTATTGTT [CACACA_site1640],10.1 ± 0.13
14,AAACAAAAAAGAAACACACACTAATTAAATTTTCTT [CACACA_site4746],9.77 ± 0.16
15,ATAATTAAAAAAGGAATATATATATATATATATATA [GTGCAC_negctrl_site343],9.81 ± 0.45
16,CGTATGACATAATATTGTACTTTTGATATACATCAT [XGTACX_site7366],11.2 ± 0.83
17,TTTAATAATATTTAGGTGCTATATATTATATGTATA,9.69 ± 0.042
18,TAAATTAATAAAAAGTGTACATAATATACATATATA [XGTACX_site8604],11.3 ± 0.66
19,TACAATACCGTACAGGTGCAACTAGCCAAAAAAAAG,11.1 ± 0.87
20,ATAAATCATAAGGAGAGTACATAAATAAAATAATCA [XGTACX_site8825],11.2 ± 0.71
21,ACAACATGCACACGCACACACAAAAAAAGCATGCAT [CACACA_site6185],10.3 ± 0.3

# — the supplement of paper PMC11417369
